Assay results as given in PMC4336329 (PLoS ONE, 2015).
Screen size: about 310,000 compounds; about 14,000 (4.5%) showed an effect of 50% or more. The effect is printed as a negative number. The list shows a part of the results. Where a SMILES comes first, the peptide text is derived from it. [ ]: non-standard residue; d: D form. ξ: configuration not given here. ξF = NC(Cc1ccccc1)C(=O)O

molecular target: human ether-à-go-go-related gene (hERG) potassium channel (human, UniProt Q12809); experiment: primary screen, population patch clamp on CHO cells stably expressing hERG
Sequence (Q12809 whole entry, looked up): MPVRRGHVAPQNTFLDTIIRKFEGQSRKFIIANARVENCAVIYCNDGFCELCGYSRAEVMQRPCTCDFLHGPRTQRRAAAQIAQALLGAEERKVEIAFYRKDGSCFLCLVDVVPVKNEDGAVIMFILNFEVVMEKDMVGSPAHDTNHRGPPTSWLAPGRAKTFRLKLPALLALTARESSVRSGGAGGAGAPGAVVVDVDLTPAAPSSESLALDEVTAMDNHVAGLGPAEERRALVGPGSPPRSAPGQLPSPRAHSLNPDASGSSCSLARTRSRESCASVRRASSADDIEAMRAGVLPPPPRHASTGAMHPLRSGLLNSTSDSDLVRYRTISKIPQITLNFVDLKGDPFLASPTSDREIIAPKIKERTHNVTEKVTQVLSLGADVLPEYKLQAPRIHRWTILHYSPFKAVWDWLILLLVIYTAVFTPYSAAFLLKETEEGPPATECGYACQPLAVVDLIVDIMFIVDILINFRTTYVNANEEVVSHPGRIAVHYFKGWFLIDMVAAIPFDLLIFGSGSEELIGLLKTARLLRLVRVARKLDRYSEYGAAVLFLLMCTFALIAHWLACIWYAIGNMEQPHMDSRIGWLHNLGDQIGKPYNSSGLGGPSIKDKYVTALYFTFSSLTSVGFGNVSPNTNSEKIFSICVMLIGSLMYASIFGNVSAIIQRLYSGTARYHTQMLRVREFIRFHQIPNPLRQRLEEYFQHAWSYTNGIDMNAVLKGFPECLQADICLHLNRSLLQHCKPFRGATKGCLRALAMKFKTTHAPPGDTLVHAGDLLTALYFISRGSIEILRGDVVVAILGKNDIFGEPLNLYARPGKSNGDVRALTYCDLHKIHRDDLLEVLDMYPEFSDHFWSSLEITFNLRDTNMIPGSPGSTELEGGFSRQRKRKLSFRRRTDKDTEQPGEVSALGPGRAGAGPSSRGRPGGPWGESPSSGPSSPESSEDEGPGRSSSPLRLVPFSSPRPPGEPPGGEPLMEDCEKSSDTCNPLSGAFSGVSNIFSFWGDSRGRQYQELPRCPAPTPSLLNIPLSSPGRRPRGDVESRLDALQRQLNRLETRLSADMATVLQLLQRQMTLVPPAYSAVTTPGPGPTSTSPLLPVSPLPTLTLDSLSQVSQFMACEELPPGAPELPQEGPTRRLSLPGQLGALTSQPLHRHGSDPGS
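Also: peak tail current of the secondary pulse compared with the same well before compound.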

SMILES	hERG current change (%, negative = inhibition) at 10uM [%]
CC(C)C(=O)Nc1ccc2c(c1)C(=O)NC2=O	14.3
O=C(CSC(=S)N1CCCC1)NCC(=O)Nc1ccccc1Br	-0.166
CCOC(=O)c1c(-c2ccccc2)oc2cc(CN(C)C)c(O)c(CN(C)C)c12	-41.5
CCCc1nnc(NC(=O)CCC(=O)N2CCC(C)CC2)s1	14.8
O=C(CN1CCN(S(=O)(=O)c2ccc(Br)cc2)CC1)Nc1ccc2c(c1)OCCO2	-27.9
O=C1CCC/C1=C/Nc1ccc(Cl)cc1	-4.33
Cc1cccc(-n2ncc(C(=O)NC3CCCC3)c2C2CCN(C(=O)OC(C)(C)C)CC2)c1	-4.47
COc1ccc(CCN2C(=O)C3C(C2=O)C2C=CC3C23CC3)cc1OC (stereo not drawn)	-17.3
Cc1noc(C)c1COC(=O)CNC(=O)c1ccc(Cl)cc1	7.83
O=C(COc1ccc(Cl)cc1Cl)N/N=C/C1CC=CCC1 (stereo not drawn)	11.5
CCn1c2ccccc2c2nnc(SCC(=O)Nc3c(C)n(C)n(-c4ccccc4)c3=O)nc21	0.0991
O=C1CSC(c2ccccn2)N1c1ccc(F)cc1F (stereo not drawn)	-0.569
O=C(CN(Cc1ccccc1Cl)S(=O)(=O)c1ccc(Cl)cc1)N/N=C/c1ccc(C(=O)O)cc1	16.2
CC(NC(=O)COC(=O)c1ccc(OCC2CCCO2)cc1)c1ccccc1Cl (stereo not drawn)	-2.21
CCCn1cnc2scc(-c3ccc(C)c(C)c3)c2c1=O	-3.28
C1CCC(OCCN2CCN(CCOC3CCCCC3)CC2)CC1	-37.1
Cc1nc2ncccn2c1-c1csc(NCc2ccco2)n1	-51.8
CCOc1cc(/C=C2/SC(=O)N(CC(=O)N3CCc4ccccc4C3)C2=O)ccc1OCC(=O)O	3.14
COc1ccc(S(=O)(=O)N2CCOC23CCN(S(=O)(=O)c2cc(F)ccc2F)CC3)cc1	-2.76
COc1ccc(Cc2nnc(SCC(=O)Nc3ccccc3C)n(N)c2=O)cc1	13.5
CCN1CCN(CCC(=O)Nc2cc(OC)ccc2OC)CC1.Cl	0.86
C=CCN1C(=O)N/C(=C/c2ccc(C)o2)C1=O	9.15

SMILES	hERG current change (%, negative = inhibition) at 10uM [%]
CCCCN(C)C(=O)c1cccc(OC2CCN(CC(C)(C)C)CC2)c1	-12.5
Cc1cc(N2CCC(C(=O)NC3CC3)CC2)nc(-c2ccccc2)n1	-46
Nc1cc(=O)[nH]n1C1CCCC1	21.5
COc1ccccc1N1CC(O)=C(c2nc3ccccc3s2)C1=N	0.288
COc1cc(C(=S)N2CCOCC2)ccc1OS(=O)(=O)c1ccc(C)cc1	-7.34
CCC1C/C(=C/c2cccs2)C(=O)/C(=C/c2cccs2)C1 (stereo not drawn)	-5.36
COC(=O)c1ccc(OCC(=O)c2ccccc2)cc1	-17.4
O=C(C1CCN(S(=O)(=O)c2cccs2)CC1)N1CCc2ccccc2C1	-38
COC(=O)C1C(c2ccc(N(C)C)cc2)C(C(=O)OC)S(=O)(=O)CS1(=O)=O (stereo not drawn)	6.12
CC(=O)C(Sc1nccc(-c2cccs2)n1)C(C)=O	-18
CCCCN(CCCC)CCNC(=O)c1cn(C)c2ccc(S(=O)(=O)N3CCCC3)cc2c1=O	-57.9
CCOC(=O)c1c(NC(=O)CSc2ncnc3ccccc23)sc(C)c1C	0.193
COc1ccccc1CN1CCCCCC1.O=C(O)C(=O)O	11.5
CC(=O)c1ccc(N2CCN(C(=O)Cc3ccccc3)CC2)c(F)c1	-9.6
O=C(c1ccc(CNS(=O)(=O)c2ccccc2)cc1)N1CCN(c2ccccn2)CC1	-28.5
O=[N+]([O-])c1cc(C(F)(F)F)ccc1-n1nnc2ccccc21	7.86
CCN(CC)CCN1C(=O)C(=O)/C(=C(/O)c2ccncc2)C1c1ccccc1F (stereo not drawn)	2.25
CCN(CC)C(=O)c1sc(NC(=O)Cc2ccc(OC)cc2)c(C#N)c1C	7.7
CC(=O)Nc1ccc(C(=O)CSc2nnc3scc(-c4ccccc4)n23)cc1	0.323
COc1ccc(Br)cc1CNC(=O)Nc1cccs1	-2.81
CC(=O)n1c2ccccc2c2nc3ccccc3nc21	4.16
O=C(Oc1cccnc1)c1cc2ccccc2oc1=O	5.57

SMILES	hERG current change (%, negative = inhibition) at 10uM [%]
CNC(=O)CCc1[nH]c2ccccc2c1Sc1ccccc1	4.85
O=C(Nc1cc(S(=O)(=O)N2CCCCC2)ccc1N1CCCCC1)c1ccncc1	-52.4
CC1(C)CC(=O)C2=C(C1)OC(/N=C/N1CCOCC1)=C(C#N)C2c1ccccc1 (stereo not drawn)	-11
CCOc1cc(S(=O)(=O)NCc2ccccc2)ccc1Br	2.47
COc1ccc(O)c(C(=O)c2cnn(-c3ccccc3)c2)c1	5.65
Cc1nn(-c2ccccc2)c(C)c1NC(=O)COC(=O)c1cc(Br)ccc1O	-0.668
CC(C)(C)NC(=O)CSc1nc(-c2ccc(F)cc2)cs1	18.5
O=C(NCCCN1CCCC1=O)C(=O)NCC1OCCCN1S(=O)(=O)c1cc(F)ccc1F (stereo not drawn)	23.8
COc1cccc(NC(=O)c2ccc3c(c2)C(=O)N(CC2CCCO2)C3=O)c1 (stereo not drawn)	4.64
COC(=O)C1=C(C)N(CCc2c[nH]c3ccccc23)C(=O)/C1=C\N(C)C	20.5
O=C(CN1CCN(S(=O)(=O)c2ccc(Br)cc2)CC1)N/N=C/c1cccnc1	-31.6
C=CCn1cc(C(=O)OC)c(=O)c2cc(S(=O)(=O)N3CCCCCC3)ccc21	-0.223
CCCCC(CC)COC(=O)C(C#N)=C(c1ccccc1)c1ccccc1 (stereo not drawn)	24.3
O=C(C(=O)N1CCN(c2cccc(Cl)c2)CC1)c1cn(CC(=O)N2CCOCC2)c2ccccc12	6.64
C/C(=N\NC(=O)c1nnn(-c2nonc2N)c1CN1CCCCC1)c1ccccc1O.Cl	-12.9
O=C(NC1CCCCC1)C(c1ccc2ncccc2c1)N(Cc1ccc(F)cc1)C(=O)c1ccc2c(c1)OCCO2 (stereo not drawn)	-14.6
Cc1cc(C)nc(NC(=O)c2ccc([N+](=O)[O-])o2)n1	-2.93
Cc1ccc(N2CC(C(=O)OCc3nnc(-c4ccccc4)o3)CC2=O)cc1 (stereo not drawn)	-4.97
COc1cc(/C=C2\C(=O)ON=C2c2ccc(Cl)cc2)ccc1O	6.33
CCCn1c2ccccc2c2cnn(CC(=O)NC(C)CC)c(=O)c21 (stereo not drawn)	7.84
O=C(COc1ccc(Br)cc1)N/N=C1/SCC(=O)N1Cc1ccccc1	-40.2
O=C(O)C(O)c1ccccc1.O=C(O)C(O)c1ccccc1 (stereo not drawn)	11.6

SMILES	hERG current change (%, negative = inhibition) at 10uM [%]
CN1C(=O)C2(Oc3ccccc3C3CC(c4ccccc4)=NN32)c2ccccc21 (stereo not drawn)	6.76
COc1cc(OC)c(C2N(c3ccc(Cl)c(Cl)c3)C(=O)C3CCCN32)cc1OC (stereo not drawn)	3.7
Cc1ccc(-c2noc(CNc3ccccc3)n2)cc1	5.41
CC(=O)c1sc(C(C)(C)C)cc1NC(=O)CCC(=O)O	16.3
COc1ccccc1CNC(=O)COC(=O)c1cc([N+](=O)[O-])ccc1N1CCOCC1	-48.9
Cc1cc(C(F)(F)F)c2c(C)nn(CCc3nn[nH]n3)c2n1	6.68
CCN(CC(=O)Nc1ccc(S(=O)(=O)N2CCOCC2)cc1)Cc1ccccc1	-16.5
CC(C)c1cc(C(=O)O)c2cnn(C(C)C)c2n1	-8.8
Cc1csc(/C(=N\O)c2csc(C)n2)n1	-0.141
Cc1c(-n2cc(C(=O)O)c(=O)c3cc(F)c(N4CCCC(O)C4)c(F)c32)c(=O)n(-c2ccccc2)n1C (stereo not drawn)	0.52
CC(=O)NCC(=O)NC(Cc1ccccc1)C(N)=O (stereo not drawn) (Ac-Gly-[ξF]-NH2)	7.6
COc1ccc(Nc2nc(N)c([N+](=O)[O-])c(NC3CCCCC3)n2)cc1	6.75
O=c1oc(-c2cc3ccccc3o2)nc2sc3c(c12)CCCC3	5.88
CCN(CC)CCCN1C=C2C(=O)C(C)(OC(=O)CCC(=O)OC)C(=O)C=C2C=C1C1CC1 (stereo not drawn)	-13.4
Cc1ccc(Cn2nc(C)c(NC(=O)C3CC3)c2C)cc1	12.1
CC(=C/c1ccccc1)/C=N/NC(=O)c1ccccn1	-30.3
CCOc1ncccc1C(=O)N1CCN(S(=O)(=O)c2ccc3c(c2)OCCO3)CC1	2.36
CCN(CC)S(=O)(=O)c1cccc(NC(=O)COc2ccc(Cl)cc2Br)c1	2.59
CC(C)N(Cc1ccccc1)S(=O)(=O)c1ccc(F)cc1	-14.7
Nc1c(NCc2ccccc2)c(=O)[nH]c(=O)n1Cc1ccccc1	-17.6
Cc1ccc2[nH]c3c(c2c1)CN(C)CC3.Cl	-5.01
